According to the supplement of paper PMC7125110:
± gives the standard error. This sample is rich in variants without activity.

B1: glmS ribozyme (parent)
chain: AUAAAAGCGCCAGAACUACAGAAAUGUAGUUGACGAGGAGGAGGUUUAUCGAAUUUUCGGCGGAUGCCUCCAAA

Variants of: B1
Assay: self-cleavage kobs at 640 uM GlcN6P; higher = faster cleavage; RNA array
Settings: with glucosamine-6-phosphate
Summary of the method: (§1)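 Barcoded glmS ribozyme variants on sequenced MiSeq chips were transcribed in situ by E. coli RNA polymerase and tracked through a hybridised Cy3 probe at 37 °C. Glucosamine-6-phosphate (40 μM to 10 mM) in HEPES/KCl/Mg(OAc)2 buffer was flowed in, and tiles were imaged over ~14 h. Signals were normalised to baseline and to non-cleaving reference variants; per-tile medians were fit to one- or two-exponential decays to give kobs. kcat and KM came from weighted Michaelis–Menten fits across concentrations.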

| Variant | self-cleavage kobs at 640 uM GlcN6P [s⁻¹] |
| --- | --- |
| U47A C58G | 4.54e-05 ± 1.7e-05 |
| U47A G63C | < 1e-05 |
| U47C G51U C71G | < 1e-05 |
| U47G C50A A64G U69G | 0.000155 ± 3.9e-05 |
| A48C G59C C71U | < 1e-05 |
| A48G C58A G62A | < 1e-05 |
| A48G U54G | 6.14e-05 ± 1.1e-05 |
| A48U C67G C70U | < 1e-05 |
| A48U U49A C68A | < 1e-05 |
| A48U U54G C70U | 0.000139 ± 2.9e-05 |
| U49C A52G | < 1e-05 |
| U49C C58A | < 1e-05 |
| U49G G62C C70U | < 1e-05 |
| U49G U55G | 0.000247 ± 5e-05 |
| U49G U65C | < 1e-05 |
| C50A C67U C68U | 6.87e-05 ± 2.8e-05 |
| C50U A52G C70A | 0.000125 ± 3.7e-05 |
| G51A C61U | < 1e-05 |
| G51U A52U | < 1e-05 |
| G51U A53U U54A | < 1e-05 |

| Variant | self-cleavage kobs at 640 uM GlcN6P [s⁻¹] |
| --- | --- |
| A52C U57G U69G | 8.06e-05 ± 2.8e-05 |
| A52U C67A | 6.53e-05 ± 8.3e-06 |
| A53G U54A G63U | < 1e-05 |
| A53U G62A C68U | < 1e-05 |
| U55C C61U C68G | < 1e-05 |
| U55G A64U C67A | < 1e-05 |
| U56A C58G G59A G60A | < 1e-05 |
| U57C G63C | < 1e-05 |
| C58G A64G U65A G66U C67G U69C | 9.79e-05 ± 2.9e-05 |
| C58G G62A | < 1e-05 |
| C58U C61A | 0.000108 ± 3.4e-05 |
| C58U G59C C61U C71A | < 1e-05 |
| C58U G63U | < 1e-05 |
| G59A G63A G66A | < 1e-05 |
| C61A C67U | 6.41e-05 ± 1.4e-05 |
| G63A C67G | < 1e-05 |
| A64U U65G C71U | < 1e-05 |
| U65C C67G | 5.5e-05 ± 1.4e-05 |
| C68A U69G | 9.62e-05 ± 3.5e-05 |

Variants of: B1
Assay: self-cleavage kobs at 2500 uM GlcN6P; higher = faster cleavage; RNA array
Settings: with glucosamine-6-phosphate
Summary of the method: as §1

| Variant | self-cleavage kobs at 2500 uM GlcN6P [s⁻¹] |
| --- | --- |
| U47A C58G | 7.52e-05 ± 1.2e-05 |
| U47A G63C | < 1e-05 |
| U47G C50A A64G U69G | 0.000142 ± 3.1e-05 |
| A48G C58A G62A | < 1e-05 |
| A48G U54G | 0.000134 ± 2.5e-05 |
| A48U U54G C70U | 0.000369 ± 9.6e-05 |
| U49C A52G | < 1e-05 |
| U49G U55G | 0.000582 ± 6.3e-05 |
| C50A C67U C68U | 0.000153 ± 6.2e-05 |
| C50U A52G C70A | 6.9e-05 ± 2.3e-05 |
| G51U A52U | < 1e-05 |
| A52U C67A | 0.000124 ± 1.6e-05 |
| A53G U54A G63U | < 1e-05 |
| U55C C61U C68G | < 1e-05 |
| U56A C58G G59A G60A | < 1e-05 |
| U57C G63C | < 1e-05 |
| C58G G62A | < 1e-05 |
| C58U C61A | 7.93e-05 ± 1.5e-05 |
| C58U G63U | < 1e-05 |
| C61A C67U | 4.8e-05 ± 9.3e-06 |
| G63A C67G | < 1e-05 |
| A64U U65G C71U | < 1e-05 |
| A6C G13U C68U | < 1e-05 |
| A6U G32U G40U A42C U65G | < 1e-05 |

Variants of: B1
Assay: self-cleavage kobs at 10000 uM GlcN6P; higher = faster cleavage; RNA array
Settings: with glucosamine-6-phosphate
Summary of the method: as §1

| Variant | self-cleavage kobs at 10000 uM GlcN6P [s⁻¹] |
| --- | --- |
| U47A C58G | 0.000117 ± 1.5e-05 |
| U47G C50A A64G U69G | 3.49e-05 ± 1.6e-05 |
| A48G U54G | 0.000127 ± 1.2e-05 |
| A48U U54G C70U | 0.000445 ± 0.00012 |
| U49C A52G | < 1e-05 |
| U49C C58A | < 1e-05 |
| U49G U55G | 0.000687 ± 9.4e-05 |
| G51A C61U | < 1e-05 |
| G51U A53U U54A | < 1e-05 |
| A52U C67A | 0.000183 ± 2.1e-05 |
| U57C G63C | < 1e-05 |
| C58G G62A | < 1e-05 |
| C58U G63U | < 1e-05 |
| U65C C67G | 6.72e-05 ± 8.1e-06 |

Variants of: B1
Assay: self-cleavage kobs at 160 uM GlcN6P; higher = faster cleavage; RNA array
Settings: with glucosamine-6-phosphate
Summary of the method: as §1

| Variant | self-cleavage kobs at 160 uM GlcN6P [s⁻¹] |
| --- | --- |
| U47A G63C | < 1e-05 |
| U47G C50A A64G U69G | 0.000158 ± 4.6e-05 |
| A48C G59C C71U | < 1e-05 |
| U49G G62C C70U | < 1e-05 |
| U49G U55G | 8.7e-05 ± 1.8e-05 |
| C50A C67U C68U | 6.13e-05 ± 3.1e-05 |
| C50U A52G C70A | 5.11e-05 ± 2.3e-05 |
| G51A C61U | < 1e-05 |
| G51U A52U | < 1e-05 |
| A53U G62A C68U | < 1e-05 |
| U55C C61U C68G | < 1e-05 |
| U57C G63C | < 1e-05 |
| C58U C61A | 6.42e-05 ± 1.7e-05 |
| C61A C67U | 2.79e-05 ± 1.1e-05 |
| A6C G13U C68U | < 1e-05 |
| A6G C16U G60U G66U | < 1e-05 |
| A6G G9U G32C G40U U45A U47G U69C | < 1e-05 |
| A6U G32U G40U A42C U65G | < 1e-05 |
| A6U G38U U47G | < 1e-05 |
| G7A A14U G35U G44U A48C A53G C70U | < 1e-05 |
| G7A C16U | < 1e-05 |
| G7A C68G | < 1e-05 |
| G7C A14C A53G | < 1e-05 |
